Measured values taken from PubChem BioAssay AID651820 (National Center for Advancing Translational Sciences (NCATS), 2012).
Values joined by “and” are separate entries in the source; they are usually repeats but may differ in a detail not shown here. Equal entries are not always repeated. About 12,000 (3.5%) of roughly 340,000 compounds were called active. This list was built around the results that the source calls inconclusive (neither active nor inactive); the mix of calls is not that of the screen. The call rests on the fitted dose curve; in most records, active means well fitted inhibition curve with a large enough effect; inconclusive means small, poorly fitted or top-dose-only effect, or another doubt; inactive means no such curve, though single readings can be large or run the other way. Potencies of inconclusive entries are doubtful fits and often do not repeat.

Experiment: qHTS Assay for Inhibitors of Hepatitis C Virus (HCV)
Details: Huh7.5.1 HCVcc-Cre (HCVcc is cell-culture hepatitis C virus) infection, luciferase reporter, 44 h; activity change, negative = inhibition: at 41.8 µM (top of the series) unless noted
Method in brief: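 A cell-based infection assay in which seeded cells (1,000 per well) receive test compound after 4 h, are inoculated with HCVcc-Cre at approximately 0.5 moi, and are incubated 44 h before luminescence detection.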
On the % scale 0 is the no-effect control and ±100 the full control effect; potency means the concentration at half of the fitted maximal effect; tags describe the fitted curve by direction and shape.

SMILES	Potency	activity change, negative = inhibition
O=C(/C=C/c1cccc(Cl)c1)c1ccc([N+](=O)[O-])o1	active: 2.51 µM	–
COc1ccc(/C=N/NC(=O)CCn2cnc(-c3ccccc3)c2-c2ccccc2)cc1	–	inactive: 9.35%
CCOc1c(Cl)cc(C(=O)Nc2ccccc2-c2ccccc2)cc1Cl	–	inactive: 2.81%
CCC1CCc2c(sc3nc(SCC(=O)NCc4ccco4)n(-c4ccccc4)c(=O)c23)C1 (stereo unspecified)	–	inactive: -1.04%
COc1ccc(C(CNC(=O)C(=O)Nc2ccc3c(c2)OCO3)N2CCN(C)CC2)cc1 (stereo unspecified)	inconclusive: 25.1 µM [inhibitor, single point]	–
COc1cccc([C@@H]2CC=C(C(=O)O)[C@H](c3cccc(Cl)c3)N2S(=O)(=O)c2ccc(C)cc2)c1	–	inactive: 8.72%
COc1ccc(CC(=O)Nc2ccc(S(=O)(=O)Nc3ncccn3)cc2)cc1	–	inactive: 14.5%
CCOc1ccc(-c2cc(C(=O)NCCCn3ccnc3)c3cc(Br)ccc3n2)cc1	active: 10 µM	–
Cc1cccc2nc(COc3ccc(Cl)c4cccnc34)cn12	inconclusive: 10 µM [inhibitor, partial curve]	–
Cc1ccc(S(=O)(=O)Nc2ccc(C(=O)Nc3ccncc3)cc2)cc1	–	inactive: -10.4%
Cc1cc(C)c(S(=O)(=O)N2CCCOC2CNC(=O)C(=O)NCCCn2ccnc2)c(C)c1 (stereo unspecified)	–	inactive: 2.21%
C=CCc1cc(Cl)ccc1OCCOCCNC(C)CC (stereo unspecified)	inconclusive: 10 µM [inhibitor, partial curve]	–
O=C(Nc1cccc(S(=O)(=O)c2cccc(NC(=O)C3CC3)c2)c1)C1CC1	active: 5.62 µM	–
CC(C)(C)NC(=O)c1cccc2c1OC(C)(C)C2	inconclusive: 31.6 µM [inhibitor, single point]	–
COc1ccc(/C=N/Nc2nc(C)cc(-c3ccccc3)n2)cc1OC	inconclusive: 10 µM [inhibitor, partial curve]	–
Cc1ccc(S(=O)(=O)c2ccc(Cl)cc2)cc1S(=O)(=O)N1CCOCC1	inconclusive: 31.6 µM [inhibitor, single point]	–
COc1c(C)cc(C(=O)C2CCCN(S(=O)(=O)c3c(C)noc3C)C2)cc1C (stereo unspecified)	active: 10 µM	–
Cc1ccc(-c2nc3ccccc3c(=O)n2CCN2CCOCC2)cc1	–	inactive: 12.9%
CCn1c(SCC(=O)Nc2ccccc2OC)nc2ccccc2c1=O	inconclusive: 3.55 µM [inhibitor, partial curve]	–
CCC(=O)N1CCN(c2ccc(NC(=O)COc3ccccc3[N+](=O)[O-])cc2)CC1	active: 11.2 µM	–
O=C(CCN1CCC(c2ccccc2)C1)c1ccc2c(c1)OCCO2 (stereo unspecified)	inactive and inconclusive: 28.2 µM [inhibitor, single point]	–
